Measured values published in publication PMC4336329 (PLoS ONE, 2015).
In all, about 310,000 compounds went through this assay and about 14,000 (4.5%) showed an effect of 50% or more. The effect is printed as a negative number. The list shows a part of the results.

Each molecule was assayed against human ether-à-go-go-related gene (hERG) potassium channel (human, UniProt Q12809) (assay: primary screen, population patch clamp on CHO cells stably expressing hERG).
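Further: peak tail current of the secondary pulse compared with the same well before compound.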

Chain of human ether-à-go-go-related gene (hERG) potassium channel (Q12809 whole entry, looked up): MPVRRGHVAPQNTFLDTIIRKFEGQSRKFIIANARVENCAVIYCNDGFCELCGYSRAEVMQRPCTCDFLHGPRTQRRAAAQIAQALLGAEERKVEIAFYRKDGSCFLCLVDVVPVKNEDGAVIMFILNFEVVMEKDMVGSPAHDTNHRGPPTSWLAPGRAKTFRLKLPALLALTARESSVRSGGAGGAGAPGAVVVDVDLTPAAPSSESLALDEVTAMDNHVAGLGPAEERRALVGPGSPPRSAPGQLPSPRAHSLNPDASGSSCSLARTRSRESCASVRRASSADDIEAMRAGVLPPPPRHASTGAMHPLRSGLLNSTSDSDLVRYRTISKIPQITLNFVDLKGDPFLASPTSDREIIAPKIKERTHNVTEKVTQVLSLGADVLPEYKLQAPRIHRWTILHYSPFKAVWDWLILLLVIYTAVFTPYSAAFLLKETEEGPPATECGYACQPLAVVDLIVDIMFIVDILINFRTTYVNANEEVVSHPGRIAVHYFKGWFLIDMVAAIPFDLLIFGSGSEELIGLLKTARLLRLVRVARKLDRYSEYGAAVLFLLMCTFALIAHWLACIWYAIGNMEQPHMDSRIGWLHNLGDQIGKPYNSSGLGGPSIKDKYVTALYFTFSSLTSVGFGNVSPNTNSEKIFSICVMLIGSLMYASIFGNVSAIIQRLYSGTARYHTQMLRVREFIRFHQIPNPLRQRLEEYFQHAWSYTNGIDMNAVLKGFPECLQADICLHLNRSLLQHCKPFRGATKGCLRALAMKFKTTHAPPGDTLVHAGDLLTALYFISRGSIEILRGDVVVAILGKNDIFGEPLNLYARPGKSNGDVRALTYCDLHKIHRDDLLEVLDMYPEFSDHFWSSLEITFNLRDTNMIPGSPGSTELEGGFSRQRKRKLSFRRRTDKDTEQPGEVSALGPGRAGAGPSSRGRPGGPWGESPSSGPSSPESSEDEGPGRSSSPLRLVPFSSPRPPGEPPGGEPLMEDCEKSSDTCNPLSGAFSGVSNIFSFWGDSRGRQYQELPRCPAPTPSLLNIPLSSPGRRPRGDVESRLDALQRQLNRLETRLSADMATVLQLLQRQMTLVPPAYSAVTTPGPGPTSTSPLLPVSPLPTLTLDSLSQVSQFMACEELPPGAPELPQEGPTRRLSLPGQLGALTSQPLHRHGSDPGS

| Compound | hERG current change (%, negative = inhibition) at 10uM [%] |
| --- | --- |
| c1ccc2c(c1)COC(CNC1CCCCC1)OC2 | 9.14 |
| Cc1cc(C)c(S(=O)(=O)c2ccccc2C)c(SCC(C)C)n1 | -5.4 |
| CCOc1ccc(OCC)c(NC(=O)CSc2nc3c(c(=O)n(C)c(=O)n3C)n2CC)c1 | -3.77 |
| CC(C)(C)C(=O)N1CCN(c2nc3ccccc3s2)CC1 | -14.2 |
| Cc1cccc(-c2nnc(SCc3cc(=O)[nH]c4ccccc34)n2C)c1 | -26.1 |
| CCOP(=O)(OCC)C(O)c1cccc([N+](=O)[O-])c1 (stereo not shown) | 8.61 |
| Cc1sc(N/N=C/c2cccs2)nc1-c1ccccc1 | 2.51 |
| O=C(O)CCCn1c(=S)[nH]c2c(sc3ccc([N+](=O)[O-])cc32)c1=O | 23 |
| COc1ccc(/C=C(\NC(=O)c2ccccc2)C(=O)N2CCN(C)CC2)cc1 | -76.3 |
| COc1ccc(NC(=O)CSc2nnnn2C2CCCCC2)cc1 | -20.5 |
| CN(C)CCNC(=O)CCn1nc(-c2ccc(Cl)cc2)ccc1=O | -15.4 |
| CC(=O)Nc1ccc(S(=O)(=O)Nc2ccc(S(=O)(=O)Nc3nc(C)cc(C)n3)cc2)cc1 | 20.3 |
| CCOc1ccc(-c2cc(NC(=O)c3c(F)cccc3F)c(C(=O)O)s2)cc1 | 21 |
| CC(=O)OCC(=O)[C@@]1(OC(C)=O)[C@@H](C)C[C@H]2[C@@H]3C[C@H](F)C4=CC(=O)C=C[C@]4(C)[C@@]3(F)[C@@H](O)C[C@@]21C | -15.1 |
| CCCC(CCC)C(=O)Nc1ccc2c(c1)N(C(=O)CCN1CCN(C)CC1)c1ccccc1CC2.Cl | 3.54 |
| CCCCNC(=O)CC1S/C(=N/N=C/c2ccc(OC)cc2)NC1=O (stereo not shown) | 17.3 |
| C#C[C@]1(O)CC[C@H]2[C@@H]3CCc4cc(OC5CCCC5)ccc4[C@H]3CC[C@@]21C | 16 |
| COc1cc(C)c(Cl)cc1S(=O)(=O)N1CCCC1 | 7.87 |
| O=C(NC1CCCC1)C1CCN(S(=O)(=O)N2CCCCC2)CC1 | 9.5 |
| O=C(COC(=O)CCC(=O)c1cccs1)Nc1ccccc1[N+](=O)[O-] | 19.5 |
| CN(Cc1ccco1)S(=O)(=O)c1nnc(NC(=O)c2ccc(F)cc2)s1 | 12.3 |
| CC(C)[C@H](NC(=O)NC1CCCC1)C(=O)O | 12.2 |

| Compound | hERG current change (%, negative = inhibition) at 10uM [%] |
| --- | --- |
| CC(=O)NC(C)(C)C1CC=C(C)/C(=N\O)C1 (stereo not shown) | -11 |
| CC(C)[C@H](NC(=O)C1CCN(S(=O)(=O)c2ccc(F)cc2)CC1)C(=O)N1CCCCCC1 | 5.18 |
| CNS(=O)(=O)c1cc(O)c2c(S(=O)(=O)NC)cccc2c1 | 11 |
| Cc1ccc(-c2noc(C3CCCN(C(=O)c4ccccc4Br)C3)n2)cc1 (stereo not shown) | 0.00198 |
| CC(=O)N1CCCc2cc(S(=O)(=O)Nc3ccc(C)cc3C)ccc21 | -13.3 |
| Cc1ccc(NC(=O)C2(N(CC(C)C)C(=O)Cn3nnnc3N)CCCCC2)cc1 | 3.52 |
| CCCCS(=O)(=O)N1CCC(C(=O)Oc2ccc(Cl)cc2)CC1 | 20.9 |
| COc1ccc(N/N=C(\C#N)C(=O)NCCc2ccc(OC)c(OC)c2)cc1 | 9.85 |
| O=C(O)CC(Cc1ccc(Br)cc1)C(=O)O (stereo not shown) | 10.1 |
| O=C(CNC(=O)c1ccco1)N/N=C/c1c[nH]c2ccccc12 | 10.9 |
| CC(N)Cc1c[nH]c2c1ccc1ccccc12.Cl (stereo not shown) | 12.3 |
| Br.CCOc1ccc(C2=Nn3c(CC)nnc3SC2)cc1 | -6.9 |
| O=C(NCCCn1ccnc1)/C(=C/c1ccccc1)NC(=O)c1ccccc1 | -70.3 |
| CC(C)OCCCNc1ncnc2c1cnn2-c1ccccc1 | 2.87 |
| NC(=O)CC(NC(=O)c1ccccc1)c1ccc(NC2CCN(Cc3ccccc3)CC2)c([N+](=O)[O-])c1 (stereo not shown) | 1.08 |
| COCCN1Cc2cc3cc(C)ccc3nc2SC1=Nc1cccc(OC)c1 | 21.3 |
| O=C(CCC(=O)OCC(=O)c1cccc([N+](=O)[O-])c1)Nc1cccc(Cl)c1Cl | 3.97 |
| O=C(/C=C/c1ccccc1)N(Cc1cccc(Cl)c1)C1CCS(=O)(=O)C1 (stereo not shown) | -25.6 |
| Cc1ccc(NC(=O)CN2CCN(S(=O)(=O)c3cccs3)CC2)cc1S(=O)(=O)N(C)C | -37.7 |
| COc1ccc(CN2CCNC(=O)C2CC(=O)N2CCc3ccccc3C2)c(OC)c1 (stereo not shown) | 2.51 |
| CCOc1ccc2c(c1)sc(=NC(=O)C1CC1)n2C | -5.78 |
